From PubChem BioAssay AID686979 (National Center for Advancing Translational Sciences (NCATS), 2013)
Among all 420,000 compounds or so, about 50,000 (12%) were called active. The shares of active, inactive and inconclusive entries below differ from those in the screen. The call rests on the fitted dose curve; in most records, active means well fitted inhibition curve with a large enough effect; inconclusive means small, poorly fitted or top-dose-only effect; inactive means flat fitted curve, though single readings scatter. No potency is given beside an inconclusive call; the fits are too rough.

Test: qHTS for Inhibitors of human tyrosyl-DNA phosphodiesterase 1 (TDP1): qHTS in cells in presence of CPT; further: nearly all actives have a fitted effect of over 55% in size
Conditions: chicken DT40 Tdp1-/-;hTDP1 cells + 20 nM CPT, ATP luminescence, 48 h; activity change, negative = growth inhibition: at 46.2 µM (top of the series)
Procedure, shortened: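 Cell growth measured by CellTiter-Glo luminescence after a minimum 48 h, 37 C compound exposure with 20 nM CPT in Tdp1-knockout DT40 cells stably expressing hTDP1, seeded 400/well; qHTS titration format.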
On the % scale 0 is the no-effect control and ±100 the full control effect; potency means the concentration at half of the fitted maximal effect; tags describe the fitted curve by direction and shape.

Compound | Potency | activity change, negative = growth inhibition
Cc1noc(C)c1COc1ccccc1C(=O)NCc1ccco1 | inactive | –
COc1cc(C)ccc1OCC(=O)NC1CCCCCC1 | inactive | –
CN=C(Nc1cc(C)nn1-c1ccccc1)c1ccc(F)cc1 | inactive | –
CCOC1(/N=C(\C)NS(=O)(=O)c2ccc(Cl)cc2)C(C)=CC(=O)C=C1C | inconclusive [inhibitor, partial curve] | –
COc1cccc(S(=O)(=O)N(C)C[C@@H]2OCc3cn(nn3)CCCC(=O)N([C@@H](C)CO)C[C@H]2C)c1 | inactive | –
COc1ccc(Nc2c(-c3ccc(OC)cc3)nc3cnccn23)cc1 | inconclusive [inhibitor, single point] | –
Cc1nnc(SCC(=O)NC2(C#N)CCCCC2)n1N | inactive | –
CCCN(C(=O)CCc1nc(-c2ccc(C)cc2)no1)c1ccc(OCC)cc1 | active: 16.4 µM | –
CS(=O)(=O)N1CCCCC1c1cc(C(=O)Nc2cccc(C#N)c2)no1 (stereo not given) | inactive | –
CCC12CN3CCN(CC(C3)/C1=N\NC(=O)c1ccc(Cl)cc1)C2 | inconclusive [inhibitor, single point] | –
COc1ccc2ccccc2c1/C=N/NC(=O)c1cccc(Br)c1 | inconclusive [inhibitor, partial curve] | –
COc1ccccc1NS(=O)(=O)c1cc(C(=O)NC2CC(C)(C)NC(C)(C)C2)ccc1Cl | inactive | –
CN(CCCNC(=O)c1ccc(CS(=O)c2ccc(Br)cc2)o1)Cc1ccccc1 (stereo not given) | inactive | –
COc1ccc(N2CCN(C(=O)CCC(=O)N3CCOc4ccc(C)cc43)CC2)cc1 | inconclusive [inhibitor, single point] | –
Cc1ccc(-c2nc(N3CCN(C)CC3)c3ccccc3n2)cc1 | inconclusive [inhibitor, single point] | –
Cc1ccc(SCc2cc(=O)[nH]c(N3CCN(Cc4ccc5c(c4)OCO5)CC3)n2)cc1 | inconclusive [inhibitor, partial curve] | –
Cc1ccccc1OCC(=O)Nc1ccc(-c2nc3cc(Cl)cc(Cl)c3o2)cc1 | inactive | –
COc1ccc(CNC(=O)C2CCN(S(=O)(=O)N3CCCCC3)CC2)cc1 | inactive | –
CC(C)Oc1ccc(C(=O)NCC2Cc3cc(Cl)cc(-c4ncccn4)c3O2)cc1 (stereo not given) | inconclusive [inhibitor, single point] | –
COc1ccc(C(=O)Nc2ccncc2)cc1OC | – | inconclusive: -35% [inhibitor]
COc1cc(C2NC(=O)NC(C)=C2C(=O)OC(C)(C)C)ccc1OCC(N)=O (stereo not given) | inactive | –
COc1ccc(OCCSc2nc(-c3ccccc3)cc(=O)[nH]2)cc1 | inactive | –
Cc1onc(-c2ccccc2Cl)c1C(=O)NCc1ccco1 | – | inconclusive: -33.3% [inhibitor]
CCc1cnc2c(c1SCC(=O)NCc1ccc(C)cc1)c(=O)n(C)c(=O)n2C | inconclusive [inhibitor, partial curve] | –
CCCOC(=O)c1[nH]c2c(c1C)C(=O)CC(c1cccs1)C2 (stereo not given) | active: 0.58 µM | –

Compound | Potency | activity change, negative = growth inhibition
CC1(C)Cc2c(cnn2-c2cccc(F)c2)C(NC(=O)CSc2ccccn2)C1 (stereo not given) | inconclusive [inhibitor, single point] | –
CC1CCC2(CC1)NC(=O)N(Cc1cccc(C(F)(F)F)c1)C2=O (stereo not given) | active: 18.4 µM | –
O=C(NC1CCCC1)c1cccc2c1C(=O)c1ccc(/C=C/c3ccccc3)cc1S2(=O)=O | inconclusive [inhibitor, single point] | –
OC(CNCCc1ccc(C(F)(F)F)cc1)COc1cccc2ccccc12 (stereo not given) | inconclusive [inhibitor, single point] | –
CCCN1CCC(=O)N([C@H](CN=[N+]=[N-])CC(C)C)CC1 | inconclusive [inhibitor, single point] | –
C=CCn1c(SCC(=O)c2c(N)n(CCC)c(=O)n(C)c2=O)nc2sc(CC)cc2c1=O | active: 6.51 µM | –
COC(=O)[C@@]12CCCCN1[C@H](c1ccc(-c3cccc(Cl)c3)cc1)[C@@H]1C(=O)N(C)C(=O)[C@@H]12 | active: 20.6 µM | –
C/C(=N\NC(=S)NCc1ccccc1)c1cccs1 | inactive | –
CC(C)N(C(=O)c1nn(C)c2c1CSc1ccccc1-2)C1CCCCC1 | active: 20.6 µM | –
C=CCn1c(Cc2ccc(OC)cc2)nnc1SCC(=O)NCCc1ccccc1 | inactive | –
C/C(=N\N=C(/N)c1nonc1N)c1ccc2c(c1)OCO2 | inactive | –
COC(=O)[C@@]12C[C@@H](CC(=O)N3CCCC3)C(=O)N(Cc3ccc4c(c3)OCO4)C1=CCC(C)(C)C2 | inconclusive [inhibitor, single point] | –
O=C(NNc1ccccc1[N+](=O)[O-])NC1CCCCC1 | inactive | –
COC(=O)c1cc(OC)c(OC)cc1NC(=O)c1cc(C(C)(C)C)oc1C | – | inconclusive: -15.9% [inhibitor]
COc1ccccc1NS(=O)(=O)c1ccc2c(c1)NC(=O)C(C)S2 (stereo not given) | inconclusive [inhibitor, single point] | –
CC(C)CCNC(=O)C1CCCN(S(=O)(=O)c2ccc(F)cc2)C1 (stereo not given) | inconclusive [inhibitor, partial curve] | –
Cn1c(CC(=O)NNC(=O)c2ccc(Cl)nc2)nc2ccccc21 | inactive | –
COc1ccc2c(c1)CC/C(=C\Nc1ccc3c(c1)OCO3)C2=O | active: 14.6 µM | –
Cn1ccc2c(OCC(=O)Nc3ccc(OC(F)(F)F)cc3)cccc2c1=O | active: 11.6 µM | –
COc1ccc(NC(=O)CN(C)CC(=O)Nc2ccc3c(c2)CCC3)cc1 | inactive | –
O=c1c(O)c(Br)ccc2c(Br)c(O)c(O)c(O)c12 | – | inactive: -8.83% [at 9.04 µM]
Cc1cc(S(=O)(=O)Nc2ccc(C(=O)N3CCN(C(=O)c4ccco4)CC3)cc2)ccc1F | inconclusive [inhibitor, single point] | –
Cc1ccc(-n2c(C)cc(C=C3C(=O)CC(C)(C)CC3=O)c2C)cc1 | inconclusive [inhibitor, single point] | –
CN(CC(=O)Nc1ccc(Cl)cc1)CC(=O)Nc1ccc(C(N)=O)cc1 | inactive | –
C[C@H](CO)N1C[C@H](C)[C@@H](CN(C)C(=O)Nc2ccc3c(c2)OCO3)Oc2c(NC(=O)C3CCCCC3)cccc2C1=O | inactive | –

Compound | Potency | activity change, negative = growth inhibition
CCn1cc(C(=O)N2CCN(c3cc(Cl)ccc3C)CC2)c(=O)c2cc(S(=O)(=O)N3CCCC3)ccc21 | active: 23.1 µM | –
COc1ccc(NC(=O)NCC(C)CSc2ccc(C)cc2)c(OC)c1 (stereo not given) | inconclusive [inhibitor, single point] | –
CCN(CC)c1ccc(/C=C(\C#N)C(=O)c2ccc(Br)cc2)cc1 | inconclusive [inhibitor, single point] | –
COc1ccc(CNC(=O)c2ccc(-c3cnn(C)c3)c3ccoc23)cc1OC | inactive | –
CSc1nc(=O)n(CCC#N)nc1SC | inconclusive [inhibitor, single point] | –
Cc1cccc(C(=O)NC2CC3CCCC(C2)N3S(=O)(=O)c2ccccc2)c1 (stereo not given) | active: 13 µM | –
O=C(NC(=S)Nc1ccc(N2CCOCC2)cc1)c1cccc(Cl)c1Cl | inactive | –
CC(C)N1CCN(Cc2cn[nH]c2C2CCCCC2)CC1CCO (stereo not given) | inactive | –
COc1ccc(NC(=O)C(Cc2cc(C)cc(C)c2)C(C)C(=O)O)cc1 (stereo not given) | inactive | –
Cc1cc(Br)ccc1NC(=O)CN(C)C(=O)c1ccccc1OCc1c(C)noc1C | inconclusive [inhibitor, single point] | –
Cc1nn(-c2ccccc2)c(C)c1C(=O)OCC(O)=C(C#N)c1nc2ccccc2[nH]1 | inactive | –
Cc1c(S(=O)(=O)N2CCCC2)c(=O)n(C)c(=O)n1C | inactive | –
COCCNC(=O)c1ccc(CSc2nc3ccccc3s2)cc1 | inconclusive [inhibitor, single point] | –
CC(C)CCNc1nc(N)c([N+](=O)[O-])c(N2CCCCCC2)n1 | inconclusive [inhibitor, partial curve, poor fit] | –
CC(C)(C)C1CCc2c(sc(NC(=O)c3ccco3)c2C(=O)Nc2ccccc2Cl)C1 (stereo not given) | inactive | –
COc1cc2nc(SCC(=O)Nc3ccccc3C)n3nc(CCn4c(C)nc5ccccc54)nc3c2cc1OC | active: 2.91 µM | –
Cc1ccc(C(C)(C)NC(=O)C2CCC(=O)N(CC3CCCCC3)C2)cc1 (stereo not given) | inconclusive [inhibitor, single point] | –
CCN(CC(=O)Nc1ccc(NC(C)=O)cc1)C(=O)c1cccnc1Sc1ccc(C)c(C)c1 | inactive | –
Cc1cccc2sc(N(Cc3cccnc3)C(=O)CCOc3ccccc3)nc12 | inconclusive [inhibitor, single point] | –
O=C(CN1CCN(c2ccccc2)CC1)Nc1scc2c1c(=O)oc1ccccc12 | inconclusive [inhibitor, single point] | –
Cc1ccc(S(=O)(=O)N2CCCC2CNC(=O)c2ccccc2)cc1 (stereo not given) | inconclusive [inhibitor, single point] | –
Cc1[nH]n(-c2cccc3ccccc23)c(=O)c1/C=N/NC(=O)c1cccc([N+](=O)[O-])c1 | active: 2.06 µM | –
COc1ccc([C@H]2C[C@@H](n3cc(C4CC4)nn3)[C@H](O)CN2C(=O)c2cccs2)cc1 | inactive | –
CCOC(=O)c1ccc(N2CCN(c3ccccc3OC)CC2)c(NC(=O)Nc2ccc(CC)cc2)c1 | inconclusive [inhibitor, partial curve] | –
COc1cccc(CNC(=O)CCCn2ccc3cc(S(=O)(=O)N4CCCC4)ccc32)c1 | inconclusive [inhibitor, partial curve, poor fit] | –
